Data from the BET-seq Pho4 binding data (Le et al. 2018).
The other results are listed elsewhere or left out. The energies were worked out here from pooled read counts, against the library average; single values are noisy.

target: T1, Pho4 (S. cerevisiae) (UniProt P07270); assay: relative binding free energy (BET-seq); higher = weaker binding; conditions: reference: library average
T1 sequence: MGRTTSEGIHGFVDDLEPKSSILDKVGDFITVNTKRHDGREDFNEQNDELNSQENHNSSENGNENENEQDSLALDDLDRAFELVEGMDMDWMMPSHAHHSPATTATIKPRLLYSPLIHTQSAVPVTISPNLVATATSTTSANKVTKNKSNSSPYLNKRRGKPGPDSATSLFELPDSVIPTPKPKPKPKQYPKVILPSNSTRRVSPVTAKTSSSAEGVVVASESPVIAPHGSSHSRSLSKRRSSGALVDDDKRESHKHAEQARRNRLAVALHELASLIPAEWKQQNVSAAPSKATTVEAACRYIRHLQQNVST

Sequence | relative binding free energy [kcal/mol]
GTATACACGTGGGGGC | 0.08
TGGAGCACGTGTGAGG | -0.01
ATTAACACGTGGTTGG | -0.24
AGGATCACGTGTGGCA | 0.3
GTTCCCACGTGTGTGG | -0.01
CCGTTCACGTGTGTTT | 0.18
GGTAACACGTGTTTCT | 0.09
ATAACCACGTGGTGGT | -0.12
GGAAGCACGTGATTTG | 0
ATCGTCACGTGTTTAG | 0.12
ATGGTCACGTGCGGGG | -0.01
TTGGGCACGTGGAAGT | 0.1
TTGTACACGTGTTATG | 0.11
GTGATCACGTGATATA | 0.39
CTGGGCACGTGTGACG | -0.01
ATGGGCACGTGATTGT | -0.04
TGAACCACGTGGTATG | -0.04
GTTGGCACGTGTGATG | -0.01
CGGTGCACGTGGATTG | 0.05
GCGGGCACGTGCAGGG | -0.24
GTCTGCACGTGGTTGT | -0.07
GCGTACACGTGGTGGG | -0.04
ATGGTCACGTGTGTCG | 0.22

Sequence | relative binding free energy [kcal/mol]
CTTGGCACGTGGTGCA | -0.2
TGAGGCACGTGCGTGT | -0.16
CTATTCACGTGTATGG | 0.16
TGGGCCACGTGGTGAA | -0.17
GGTGTCACGTGTTAGG | 0.17
GAAGTCACGTGTAATT | 0.29
GGAAACACGTGTTGGG | -0.02
GCATGCACGTGGGGCG | -0.19
GAGATCACGTGATTTT | 0.46
ATCGGCACGTGGAAGG | -0.02
AAGGTCACGTGGTCGA | 0.1
ATGAACACGTGAATGT | 0.36
TTTGCCACGTGGGTGA | -0.23
TATTACACGTGCTTTT | 0
TAGATCACGTGAGTGT | 0.32
GTGTACACGTGTGCTG | 0.03
CTTCTCACGTGTTTGG | 0.15
CAATGCACGTGTGAGG | 0.07
GTAGGCACGTGGAGCG | -0.1
TGTGTCACGTGGGTAC | 0.02
TGTTACACGTGCTGAG | 0.18
TTGAACACGTGATTGG | 0.16
AGGAGCACGTGTGTGA | -0.09

Sequence | relative binding free energy [kcal/mol]
AATTACACGTGTGGTC | 0.27
CGGTGCACGTGGAGTA | -0.09
TAACTCACGTGAGGGA | 0.34
GTTAGCACGTGTTATC | -0.09
CCGAGCACGTGTGTTG | 0.03
TGTCTCACGTGGGAAG | 0.14
TTTGCCACGTGTGGCT | -0.11
AAATGCACGTGATGCG | 0.2
TATTTCACGTGGGGGC | 0.24
AGGGGCACGTGGCGAG | -0.1
GGGTGCACGTGAGACA | 0.29
TTTTTCACGTGGCTAG | 0.16
GGTTCCACGTGGTGGC | 0.04
GGGATCACGTGGGAAA | 0.1
AGTTTCACGTGGGGGA | 0.22
TTCGTCACGTGAGTAA | 0.4
ATCTGCACGTGATTGT | 0.11
TCTGTCACGTGTCTTT | 0.04
GAAGGCACGTGTTGTT | -0.09
ATATGCACGTGGAGCG | -0.05
TTGGACACGTGATTGC | 0.19
ATGGGCACGTGTTCTT | -0.02
GTGTACACGTGTATTT | 0.04

Sequence | relative binding free energy [kcal/mol]
TGTTGCACGTGGGTTC | -0.08
GCGTGCACGTGAGTGT | 0.1
TGATTCACGTGTGTAC | 0.24
TAAGGCACGTGGATGG | -0.08
TTATTCACGTGGCTTT | 0.02
TTGCTCACGTGAATGG | 0.33
TGGTGCACGTGTGCAG | -0.03
TATAACACGTGGATTT | 0.14
TTATTCACGTGGGGGA | 0.21
AGTAACACGTGGGGGG | -0.11
GGATGCACGTGTGATA | 0.03
GTTATCACGTGGGCGG | 0.12
TGTTTCACGTGGACCT | 0.2
GGTGCCACGTGGATGG | -0.04
TTATACACGTGGGCGG | -0.1
ATCCGCACGTGTTTGT | 0.09
TGTGTCACGTGAAGCA | 0.28
TCGTTCACGTGAGTTA | 0.36
TCTGTCACGTGGTGAT | 0.09
GCAATCACGTGGTGTT | 0.13
TAAGTCACGTGCGGTG | 0.07
TATTTCACGTGGCGTG | 0.23
TGTAGCACGTGGACGG | -0.04

Sequence | relative binding free energy [kcal/mol]
GGTTGCACGTGGGAAT | 0.04
CGAGGCACGTGGTGGC | -0.2
TCGTTCACGTGGGTGG | 0.11
GGAGGCACGTGTGACG | -0.09
TGATTCACGTGAGGGT | 0.48
TGCAGCACGTGTTATT | -0.1
GGGTACACGTGATTTG | 0.17
CGTTTCACGTGGTAAA | 0.24
AGGTGCACGTGGTGTA | -0.03
ATGGTCACGTGGATGG | 0.15
TGATTCACGTGCTGGG | 0.31
GTCATCACGTGGTGAT | 0.19
GGTTTCACGTGGGGTA | 0.22
AATTTCACGTGGTTAA | 0.26
GTATTCACGTGTGCAT | 0.09
TTGGACACGTGTACTG | 0.02
GTTGTCACGTGGGCGC | -0.01
ATTAACACGTGGTTCG | -0.04
AGTTACACGTGGCGGA | -0.02
ATAATCACGTGTTTTG | 0.07
TAAAGCACGTGGTAGG | -0.22
CGCGGCACGTGAGTTT | 0.22
GGCGTCACGTGGATAT | 0.15
